Structures are written as SMILES.

For this experiment, the system named is MLKL phosphorylation, HT29-L23 human colorectal adenocarcinoma cells. Description: cells. The conditions noted are these: read-out: pMLKL HCS Cell Assay (IC50, uM).
Broadly, the IC50 is the concentration that inhibits the measured activity by half. Consider `Nc1ncnn2c(-c3cncc(C(=O)N[C@@H]4CN(C(=O)C5CC(F)(F)C5)C[C@@H]4F)c3)cc(C(F)(F)F)c12` [Example 282, 5-[4-amino-5-(trifluoromethyl)pyrrolo[2,1-f][1,2,4]triazin-7-yl]-N-[(3R,4S)-1-(3,3-difluorocyclobutanecarbonyl)-4-fluoropyrrolidin-3-yl]pyridine-3-carboxamide], for which the concentration for half-maximal inhibition (IC50) stood at 0.429 µM.

As for `Cc1cc(-c2cc(C(F)(F)F)c3c(N)ncnn23)cc(C(=O)N[C@@H]2CN(C(=O)CC(C(F)(F)F)C(F)(F)F)C[C@@H]2F)c1Cl` [Example 709, 5-[4-amino-5-(trifluoromethyl)pyrrolo[2,1-f][1,2,4]triazin-7-yl]-2-chloro-N-[(3R,4S)-4-fluoro-1-[4,4,4-trifluoro-3-(trifluoromethyl)butanoyl]pyrrolidin-3-yl]-3-methylbenzamide], the IC50 was 0.0044 µM.

On to `Nc1ncnn2c(-c3cccc(C(=O)N[C@H]4CCN(C(=O)c5ccccc5)C4)c3)cc(C(F)(F)F)c12` [Example 79, 3-[4-amino-5-(trifluoromethyl)pyrrolo[2,1-f][1,2,4]triazin-7-yl]-N-[(3S)-1-benzoylpyrrolidin-3-yl]benzamide], for which the IC50 came to 0.139 µM.

In the case of `COc1ncc(-c2cc(F)c3c(N)ncnn23)cc1C(=O)Nc1cnn(Cc2ccccc2)c1` [Example 8, 5-{4-amino-5-fluoropyrrolo[2,1-f][1,2,4]triazin-7-yl}-N-(1-benzyl-1H-pyrazol-4-yl)-2-methoxypyridine-3-carboxamide], the IC50 came out at 0.011 µM.

With `Nc1ncnn2c(-c3cc(C(=O)N[C@@H]4CN(C(=O)C5CCC(F)(F)C5)C[C@@H]4F)ccc3F)cc(C(F)(F)F)c12` (stereo partly drawn) [Example 424, 3-[4-amino-5-(trifluoromethyl)pyrrolo[2,1-f][1,2,4]triazin-7-yl]-N-[(3R,4S)-1-(3,3-difluorocyclopentane-carbonyl)-4-fluoropyrrolidin-3-yl]-4-fluorobenzamide], the IC50 worked out at 0.024 µM.

`Nc1ncnn2c(-c3cc(F)c(CF)c(C(=O)N[C@@H]4CN(C(=O)C5(F)CC5)C[C@@H]4F)c3)cc(C(F)(F)F)c12` [Example 612, 5-[4-amino-5-(trifluoromethyl)pyrrolo[2,1-f][1,2,4]triazin-7-yl]-3-fluoro-N-[(3R,4S)-4-fluoro-1-(1-fluorocyclopropanecarbonyl)pyrrolidin-3-yl]-2-(fluoromethyl)benzamide]: the IC50 turned out to be 0.0031 µM.

In the case of `COc1ncc(-c2cc(C(F)(F)F)c3c(N)ncnn23)cc1C(=O)N[C@@H]1CN(S(=O)(=O)c2cnc(C)s2)C[C@@H]1F` [Example 503, 5-[4-amino-5-(trifluoromethyl)pyrrolo[2,1-f][1,2,4]triazin-7-yl]-N-[(3R,4S)-4-fluoro-1-[(2-methyl-1,3-thiazol-5-yl)sulfonyl]pyrrolidin-3-yl]-2-methoxypyridine-3-carboxamide], the IC50 amounted to 0.206 µM.

Turning to `Cc1ccc(-c2cc(CN3CCC(F)(F)CC3)c3c(N)ncnn23)cc1C(=O)N[C@@H]1CN(C(=O)[C@@H]2CC2(F)F)C[C@@H]1F` [Example 1572, 5-{4-amino-5-[(4,4-difluoropiperidin-1-yl)methyl]pyrrolo[2,1-f][1,2,4]triazin-7-yl}-N-[(3R,4S)-1-[(1S)-2,2-difluorocyclopropanecarbonyl]-4-fluoropyrrolidin-3-yl]-2-methylbenzamide], the IC50 was 0.00041 µM.

With `COc1ncc(-c2cc(CN3CCC(F)(F)CC3)c3c(N)ncnn23)cc1C(=O)N[C@@H]1CN(C(=O)OC(C(C)(C)C)C(F)(F)F)C[C@@H]1F` (stereo partly drawn) [Example 1530, 1,1,1-trifluoro-3,3-dimethylbutan-2-yl (3R,4S)-3-(5-{4-amino-5-[(4,4-difluoropiperidin-1-yl)methyl]pyrrolo[2,1-f][1,2,4]triazin-7-yl}-2-methoxypyridine-3-amido)-4-fluoropyrrolidine-1-carboxylate], the half-maximal inhibitory concentration (IC50) came to 0.044 µM.

On to `Nc1ncnn2c(-c3ccc(Cl)c(C(=O)N[C@@H]4CN(C(=O)C5(F)CC5)C[C@@H]4F)c3)cc(C(F)(F)F)c12` [Example 934, 5-[4-amino-5-(trifluoromethyl)pyrrolo[2,1-f][1,2,4]triazin-7-yl]-2-chloro-N-[(3R,4S)-4-fluoro-1-(1-fluorocyclopropanecarbonyl)pyrrolidin-3-yl]benzamide], for which the IC50 was 0.0081 µM.

In the case of `COc1ncc(-c2ccc3c(N)ncnn23)cc1C(=O)N[C@@H]1CN(C(=O)[C@@](C)(O)C(F)(F)F)C[C@@H]1F` [Example 1595, 5-{4-aminopyrrolo[2,1-f][1,2,4]triazin-7-yl}-N-[(3R,4S)-4-fluoro-1-[(2R)-3,3,3-trifluoro-2-hydroxy-2-methylpropanoyl]pyrrolidin-3-yl]-2-methoxypyridine-3-carboxamide], the IC50 was 0.013 µM.

Take `Cc1ccc(-c2cc(C(F)(F)F)c3c(N)ncnn23)cc1C(=O)N[C@@H]1CN(C(=O)c2cn(C)cn2)C[C@@H]1F` [Example 1028, 5-[4-amino-5-(trifluoromethyl)pyrrolo[2,1-f][1,2,4]triazin-7-yl]-N-[(3R,4S)-4-fluoro-1-(1-methyl-1H-imidazole-4-carbonyl)pyrrolidin-3-yl]-2-methylbenzamide]: the IC50 is 0.254 µM.

Take `COc1ncc(-c2cc(C(=O)NCC#N)c3c(N)ncnn23)cc1C(=O)NCC[C@H](O)c1ccc(Cl)cc1` [Example 473, 5-{4-amino-5-[(cyanomethyl)carbamoyl}pyrrolo[2,1-f][1,2,4]triazin-7-yl}-N-[(3S)-3-(4-chlorophenyl)-3-hydroxypropyl]-2-methoxypyridine-3-carboxamide]: the IC50 came to 0.088 µM.

Consider `COc1cc(F)c(-c2cc(C(F)(F)F)c3c(N)ncnn23)cc1C(=O)N[C@@H]1CN(C(=O)CC(C(F)(F)F)C(F)(F)F)C[C@@H]1F` [Example 876, 5-[4-amino-5-(trifluoromethyl)pyrrolo[2,1-f][1,2,4]triazin-7-yl]-4-fluoro-N-[(3R,4S)-4-fluoro-1-[4,4,4-trifluoro-3-(trifluoromethyl)butanoyl]pyrrolidin-3-yl]-2-methoxybenzamide], for which the concentration for half-maximal inhibition (IC50) was 0.0034 µM.

As for `COc1ncc(-c2cc(C(F)(F)F)c3c(N)ncnn23)cc1C(=O)N[C@@H]1CN(C(=O)CC(F)(F)F)C[C@@H]1F` [Example 334, 5-[4-amino-5-(trifluoromethyl)pyrrolo[2,1-f][1,2,4]triazin-7-yl]-N-[(3R,4S)-4-fluoro-1-(3,3,3-trifluoropropanoyl)pyrrolidin-3-yl]-2-methoxypyridine-3-carboxamide], the IC50 was found to be 0.023 µM.

Take `CCOc1ccc(-c2cc(C(F)(F)F)c3c(N)ncnn23)cc1C(=O)N[C@@H]1CN(C(=O)CC(C)(O)C(F)(F)F)C[C@@H]1F` (stereo partly drawn) [Example 1098, 5-[4-amino-5-(trifluoromethyl)pyrrolo[2,1-f][1,2,4]triazin-7-yl]-2-ethoxy-N-[(3R,4S)-4-fluoro-1-(4,4,4-trifluoro-3-hydroxy-3-methylbutanoyl)pyrrolidin-3-yl]benzamide]: the IC50 was 0.026 µM.

With `CC(C)(O)CC(=O)N1C[C@H](F)[C@H](NC(=O)c2cc(-c3cc(C(F)(F)F)c4c(N)ncnn34)c(F)cc2Cl)C1` [Example 396, 5-[4-amino-5-(trifluoromethyl)pyrrolo[2,1-f][1,2,4]triazin-7-yl]-2-chloro-4-fluoro-N-[(3R,4S)-4-fluoro-1-(3-hydroxy-3-methylbutanoyl)pyrrolidin-3-yl] benzamide], the IC50 worked out at 0.145 µM.

(Values after patent US11618753B2 (priority 2018, dated 2023).)
